Assay results from the supplement of paper PMC4604168 (melanoma cell lines).
The list shows a part of the results. Repeats are few or missing, and single values can be far off.

Tests used:
Experiment in all cases: cell count relative to DMSO control; melanoma cells; higher = more viable cells
Settings in all cases: library dose: standard library concentration; 72 h
[1] = test system: G361
[2] = test system: IPC-298
[3] = test system: IST-MEL1
[4] = test system: LB2518-MEL
[5] = test system: LOXIMVI
[6] = test system: MEL-HO
[7] = test system: MZ2-MEL
[8] = test system: MeWo
[9] = test system: RPMI7951
[10] = test system: RVH-421
[11] = test system: SkMel28
[12] = test system: SkMel2
[13] = test system: SkMel30
[14] = test system: SkMel5
[15] = test system: UACC257
[16] = test system: UACC62
[17] = test system: WM115
[18] = test system: WM1716
[19] = test system: WM1745
[20] = test system: WM3526
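Note: cells treated in 1,536-well plates, then fixed and DAPI-stained, with nuclei counted from automated high-throughput microscope images.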

SMILES	cell count [1] [%]	cell count [2] [%]	cell count [3] [%]	cell count [4] [%]	cell count [5] [%]	cell count [6] [%]	cell count [7] [%]	cell count [8] [%]	cell count [9] [%]	cell count [10] [%]	cell count [11] [%]	cell count [12] [%]	cell count [13] [%]	cell count [14] [%]	cell count [15] [%]	cell count [16] [%]	cell count [17] [%]	cell count [18] [%]	cell count [19] [%]	cell count [20] [%]
CCCCCCCCc1ccc(CCC(N)(CO)CO)cc1 [fingolimod] + CO[C@@H]1[C@H](N(C)C(=O)c2ccccc2)C[C@H]2O[C@]1(C)n1c3ccccc3c3c4c(c5c6ccccc6n2c5c31)C(=O)NC4 [Midostaurin] (first compound 10 µM, partner dose 0.4 µM)	0.563	45.4	22.7	0.355	11.7	3.11	2.17	16.2	0.912	11.2	0.987	0.488	7.54	47.9	44.6	12.4	10.7	8.11	6.05	23.8
CN(NC(=O)CC(=O)NN(C)C(=S)c1ccccc1)C(=S)c1ccccc1 + COc1ccc(-c2ccc3c(N4CCOCC4)nc(N4C[C@@H](C)O[C@@H](C)C4)nc3n2)cc1CO [KU0063794] (first compound 0.03 µM, partner dose 0.1 µM)	43	56.9	65.1	26.2	73.2	68.4	80.4	21.5	89.9	68.8	32.3	67.8	80.9	59.5	88.2	62.5	30.7	81.2	24.5	68.4
CC(C)(C)c1cnc(CSc2cnc(NC(=O)C3CCNCC3)s2)o1 + OCCn1cc(-c2cnc3nnn(Cc4ccc5ncccc5c4)c3n2)cn1 [PF04217903] (first compound 0.05 µM, partner dose 5 µM)	97.4	119	92.1	88.1	84.9	99.7	94.7	86.4	40	101	42	71.6	96.5	69.1	87.1	79	97.3	65.2	70.9	98.2
Cc1ccc(NC(=O)c2cccc(N(C)C)c2)cc1NC(=O)c1ccc(O)cc1 + Cc1cc(N2CCOCC2)cc2[nH]c(-c3c(NC[C@@H](O)c4cccc(Cl)c4)cc[nH]c3=O)nc12 [BMS536924] (first compound 10 µM, partner dose 1 µM)	90.7	96.8	87.9	86	98.6	95.2	120	74.1	106	130	95	49.8	109	64.1	99.9	113	76.2	107	50.7	70.7
Cc1ccc(NC(=O)c2cccc(N(C)C)c2)cc1NC(=O)c1ccc(O)cc1 + NCC(=O)Nc1ccc(-n2nc(C(F)(F)F)cc2-c2ccc3c(ccc4ccccc43)c2)cc1 [OSU03012] (first compound 10 µM, partner dose 5 µM)	47.7	45.5	73.3	59.5	91.1	66	50.3	82.2	77.4	55.6	23.7	36.3	27.1	52.4	71.1	58.2	73.9	85.6	57	41.7
CCc1ccc(CCOc2ccc(CC3SC(=O)NC3=O)cc2)nc1 (stereo not given) [pioglitazone] + COc1ccc(-c2ccc3c(N4CCOCC4)nc(N4C[C@@H](C)O[C@@H](C)C4)nc3n2)cc1CO [KU0063794] (first compound 10 µM, partner dose 0.1 µM)	89.7	60.6	96	86.8	108	81.7	32.4	85.3	73.2	125	53.3	96.3	86.7	71.1	87.4	101	96.4	120	85.7	78
CC(C)(C)c1cnc(CSc2cnc(NC(=O)C3CCNCC3)s2)o1 + CC(C)CCN1c2nc(Nc3cc(F)c(O)c(F)c3)ncc2N(C)C(=O)C1C [BID1870] (first compound 0.05 µM, partner dose 1 µM)	60.6	79.8	85.2	84.7	99.5	70	82.4	73.7	29.9	64.2	30.4	66.1	74.2	59.9	77.9	62.6	92.7	77.3	96.8	56.3
COc1cc2c(Oc3ccc4[nH]c(C)cc4c3F)ncnc2cc1OCCCN1CCCC1 [cediranib] + O=S(=O)(c1ccccc1)N(CC(F)(F)F)c1ccc(C(O)(C(F)(F)F)C(F)(F)F)cc1 [T0901317] (first compound 2 µM, partner dose 7 µM)	77.7	82.3	101	106	44.7	89.8	95.2	80.9	60.4	88.6	79.7	84.7	91.8	70.9	80.2	66.7	101	74	64.2	81.6
CN(NC(=O)CC(=O)NN(C)C(=S)c1ccccc1)C(=S)c1ccccc1 + O=c1cc(-c2cccc3c2Sc2ccccc2S3)oc(N2CCOCC2)c1 [KU55933] (first compound 0.03 µM, partner dose 5 µM)	30.4	62.2	33.1	21.8	252	76.4	87	14.5	52.4	54	1.75	57.7	67.6	48	101	64.5	19	85.6	31.2	67.4
CN(NC(=O)CC(=O)NN(C)C(=S)c1ccccc1)C(=S)c1ccccc1 + COC(=O)c1sccc1S(=O)(=O)Nc1ccc(Nc2ccccc2)cc1OC [GSK0660] (first compound 0.03 µM, partner dose 5 µM)	43.5	73.6	42.1	0.877	94	83.5	102	22.2	80.3	66.2	24.5	60.3	96	44.1	76	93.1	28.3	84.8	32.7	80.1
CCCCCCCCc1ccc(CCC(N)(CO)CO)cc1 [fingolimod] + NC1(c2ccc(-c3nc4ccn5c(=O)[nH]nc5c4cc3-c3ccccc3)cc2)CCC1 [MK2206] (first compound 10 µM, partner dose 2 µM)	1.49	58.3	7.3	0.324	20.1	3	22.2	35.4	1.02	9.78	1.06	0.628	11.1	52.4	70.7	9.24	14.4	39.9	11.3	24.8
COc1cc2c(Oc3ccc4[nH]c(C)cc4c3F)ncnc2cc1OCCCN1CCCC1 [cediranib] + O=C1NC(=O)/C(=C/c2ccc(-c3ccc(F)cc3O)o2)S1 [AS252424] (first compound 2 µM, partner dose 5 µM)	88.7	96.7	123	89.7	99.4	85.1	105	86.1	96.7	26.8	108	86.6	89.5	106	95.7	81.6	112	113	72.7	72.3
CN(NC(=O)CC(=O)NN(C)C(=S)c1ccccc1)C(=S)c1ccccc1 + COc1cc2ncnc(Nc3ccc(Oc4ccccc4)cc3)c2cc1OC [SrcI1] (first compound 0.03 µM, partner dose 10 µM)	21.4	54.5	41	21	78.4	67.5	65.7	14.2	59.4	65	3.45	56.1	76.6	30.4	106	38.5	20.1	61	32.9	63.1
CCCCCCCCc1ccc(CCC(N)(CO)CO)cc1 [fingolimod] + COc1ccc(Cl)c(Nc2nc3ccccc3nc2NS(=O)(=O)c2cccc(NC(=O)C(C)(C)N)c2)c1 [XL147] (first compound 10 µM, partner dose 4 µM)	5.93	72	20.8	4.09	18.7	33.3	74.6	45.7	1.87	74.8	1.26	13.5	14.5	74.3	59.1	25	21.6	60.7	70.4	38.7
CN(NC(=O)CC(=O)NN(C)C(=S)c1ccccc1)C(=S)c1ccccc1 + O=C1NC(=O)/C(=C/c2ccc(-c3ccc(F)cc3O)o2)S1 [AS252424] (first compound 0.03 µM, partner dose 5 µM)	62.8	77.3	60.8	61.6	97.8	72.6	92.7	28.7	93.3	92	4.66	91.3	79.8	47.5	90.5	51.9	24.5	90.8	49.8	85.7
NC(=O)c1ccc(N(C(N)=O)c2c(F)cccc2F)nc1-c1ccc(F)cc1F + C[C@]1(O)C[C@@H](c2nc(-c3ccc4ccc(-c5ccccc5)nc4c3)c3c(N)nccn32)C1 [OSI906] (first compound 2 µM, partner dose 2 µM)	80.1	97.2	101	87	37.4	102	97.7	79.1	75.8	96.8	84.2	81.7	102	86	87.8	90.2	86.3	98.7	75.4	81
COc1cc2c(Oc3ccc4[nH]c(C)cc4c3F)ncnc2cc1OCCCN1CCCC1 [cediranib] + Cn1cc(/C=C2\C(=O)Nc3cccnc32)c2ccccc21 [GW441756] (first compound 2 µM, partner dose 2 µM)	86.8	85.6	105	89.1	74.1	110	85.4	110	70	68.7	84.3	99.2	80.7	49.1	67.8	83.6	76.2	81.9	61.3	79.3
